# Whole data set: some 33,000 sequences, median “E-score (-0.5 to 0.5)” near -0.017, cut for the highest 2% near 0.3. The list shows a part of the results.
# Molecular target: T1, Sut1 (UniProt P53032)
# T1 sequence: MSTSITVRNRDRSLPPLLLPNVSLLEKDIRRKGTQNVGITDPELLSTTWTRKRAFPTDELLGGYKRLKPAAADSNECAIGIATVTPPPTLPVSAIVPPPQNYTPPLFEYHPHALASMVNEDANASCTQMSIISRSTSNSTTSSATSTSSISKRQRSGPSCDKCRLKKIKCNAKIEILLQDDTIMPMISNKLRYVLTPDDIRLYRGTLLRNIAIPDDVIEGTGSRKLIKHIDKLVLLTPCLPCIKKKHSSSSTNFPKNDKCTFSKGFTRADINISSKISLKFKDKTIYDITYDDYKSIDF
# Experiment: PBM E-score (8-mer binding enrichment) (E-score (-0.5 to 0.5)); higher = stronger / more preferred TF binding; most listed sequences are background and not binding sites
# Conditions: protein concentration: 200 nM; construct: GST-full length
# Summary of the method: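 GST-tagged yeast TFs (full-length or DNA-binding domain) were made by PURExpress in vitro transcription/translation and applied at about 100-200 nM to universal all-10-mer Agilent arrays. The arrays were made double-stranded by primer extension, on fresh or once-stripped slides. Bound protein was detected with fluorescent anti-GST, and scans were normalised with masliner. Each ungapped eight-base word, pooled with its reverse complement, received an E-score (modified Wilcoxon-Mann-Whitney statistic) from the Universal PBM Analysis Suite.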
row,Sequence,PBM E-score
1,AAGATTAG,0.0842
2,AAACTCCC,0.0435
3,CCCATTCC,-0.257
4,ATATGGAC,0.0348
5,GCAGGCCC,-0.275
6,CTTCAACC,0.0965
7,GGGAGTAC,-0.064
8,ATCCATAC,0.107
9,ACCCAACG,-0.0276
10,GGGTAGAA,-0.0311
11,ATGAAATA,0.147
12,CCTAAAGC,-0.157
13,AATCGCTA,-0.0577
14,GCCCTGAA,-0.0902
15,TGAACTCA,-0.061
16,TCCAAAAA,0.0814
17,CAACGTCA,-0.0732
18,GAGACCGA,0.108
19,AACGAACA,0.147
20,GGCGCCGA,0.0464
21,AGCCTGCC,-0.168
22,AAGACTTC,-0.196
23,CCGTCAGG,-0.217
24,CCGATACG,-0.0215
25,ACTCCTGG,-0.189

row,Sequence,PBM E-score
1,GTAATGGA,0.141
2,GACCATGC,-0.114
3,TTAATAAA,0.341
4,TGACTCCA,-0.198
5,CCCCTAAG,-0.19
6,GAATTGGA,0.0498
7,CGTTGCCC,-0.267
8,CATGAACC,0.129
9,CACGTAGC,-0.304
10,ATACAAAC,0.298
11,ATAGGCCG,-0.146
12,CACAGGTC,-0.138
13,GTACTTAA,0.0179
14,AACCGCGT,0.0671
15,CTAGGAGA,-0.0821
16,CACGTTCG,0.0567
17,CGCGTGGA,-0.177
18,GTTAGGGA,-0.179
19,CGTGGCAG,-0.0671
20,ATAGTGGG,-0.0539
21,ACCACGCG,-0.113
22,ATGACGAC,-0.00927
23,GTCAACCA,-0.0656
24,CGTTTATC,0.171
25,ATCATCCC,0.0659

row,Sequence,PBM E-score
1,AACCAACA,0.131
2,CGTCATTA,0.0432
3,ACTAAACA,0.272
4,ACCCCCTG,-0.343
5,AGGTGAGC,-0.158
6,GCCTGACC,-0.0939
7,AGTGGTGC,-0.116
8,ACTCACGG,0.0805
9,CCGACGAA,0.164
10,CAGTAAGA,-0.0234
11,ACCGTGGA,-0.0245
12,AGTGACCG,-0.155
13,ACGTCTAG,0.0229
14,CCTGGCTC,-0.284
15,GCCTAGGC,-0.252
16,CCAACCGC,-0.0734
17,AAATCCCA,0.0824
18,TCCGCCCA,0.0508
19,GGTGGCTA,-0.182
20,TAGGTATA,0.0301
21,CCGTATTA,0.0499
22,GAATGGAC,-0.0938
23,AAATATGC,0.054
24,TTCTACAA,-0.00077
25,GTTGCAGA,-0.0396

row,Sequence,PBM E-score
1,TCCCTTAA,-0.0727
2,AAGATTAT,0.116
3,GATTATTA,0.229
4,AATTTAGA,0.23
5,TAATACAA,0.264
6,CCGGGTCC,-0.00864
7,CAATCGCA,0.0882
8,ACGACTCA,-0.0425
9,CGCCCACG,-0.242
10,CCGCTGTA,0.00817
11,GACGCATC,-0.0188
12,TTAATTAA,0.0737
13,ATGGGCCG,-0.12
14,GTCACTTA,0.0767
15,CATAGGCA,-0.11
16,CGCCTAGA,-0.0574
17,GGTCCTAA,0.0262
18,TCCCCGAA,0.228
19,GGGAAGTA,-0.124
20,ACGATTCC,0.0389
21,ATGGTGTC,-0.14
22,GTTATTGA,0.0899
23,ATGGTATC,0.0187
24,CAATGGGA,0.0704
25,GGATCTGA,-0.0985

row,Sequence,PBM E-score
1,ACCCTGAC,-0.275
2,ATTCGTCA,-0.0444
3,AGTGTGCG,-0.167
4,CCTTAGGC,-0.345
5,AGTATCTA,0.144
6,AATGTTCC,0.00585
7,GTTCACTA,0.0435
8,CAATTGCG,-0.00164
9,CCCGTCGG,-0.0797
10,GCCCCAAC,-0.0975
11,AGGTCATC,-0.118
12,CCCCTATC,-0.253
13,AGTCCGTA,0.445
14,GAAGAGCC,0.0782
15,ATATAGTG,0.23
16,ACTCGCAC,-0.131
17,ACCGCACG,-0.207
18,CTTTGCAC,0.0354
19,ACATAGCG,-0.0445
20,GCATCCTA,0.0211
21,CAGGAGAC,-0.17
22,ATCAACTG,0.0416
23,ACAGCCTA,0.0344
24,GCCGTTAA,0.092
25,AAGAGGTC,-0.0239

row,Sequence,PBM E-score
1,TGGCAAAA,0.109
2,CCTAAAAA,0.138
3,ATCCCAGG,-0.138
4,CCAGTTAC,-0.226
5,ACGAAGTG,-0.122
6,ACCAGACT,-0.139
7,ACAATTAT,0.276
8,ATTTGTGG,0.116
9,ATAAGCCG,-0.0653
10,GCGTTCAA,0.0494
11,CTTAAATC,0.146
12,TCAAGTAA,0.122
13,CTCGTTCA,-0.205
14,ATCCGGGG,0.256
15,TAAAACTA,0.257
16,AATTAACA,0.237
17,TGGCGACA,-0.207
18,CTATACGC,-0.0215
19,CTGCTTCC,-0.136
20,AGAAGTTC,-0.0438
21,CAGTCCCA,-0.315
22,CAACCTAG,-0.081
23,AGCCTGGG,-0.144
24,AATGCTCC,-0.0208
25,GTCGAAAA,0.149

row,Sequence,PBM E-score
1,ATAATGGC,0.0244
2,ACTGGCTG,-0.0504
3,ACAACTCC,0.431
4,GCGACTAC,-0.172
5,CCATGCAA,0.0211
6,AAAGCATT,0.0887
7,AACCCAGT,-0.032
8,CGATCTAA,0.0621
9,GGGGGACC,-0.421
10,CACTGCCA,-0.0425
11,AAGGTGTA,-0.0126
12,CAAATCCG,0.0586
13,CAATGGTC,0.00196
14,AGAATACG,-0.039
15,CACAACAG,-0.197
16,CTTGGTCC,0.122
17,AAGGGAAG,-0.076
18,AACCGGGA,-0.0112
19,CAGCAGGA,-0.211
20,GAACACAC,-0.0338
21,TCAGTGCA,-0.0982
22,AAAGGTTC,0.053
